These results are taken from PubChem BioAssay AID1159614 (National Center for Advancing Translational Sciences (NCATS), 2016).

Out of some 45,000 compounds screened, about 65 (0.1%) were called active. Calls come from the whole dose curve; as a rule, active = well fitted activation curve with a large enough effect; inconclusive = small, poorly fitted or top-dose-only effect; inactive = no such curve, though single readings can be large or run the other way. The list shows a part of the results.

Sequence of UniProt P54803 (P54803 whole entry, looked up): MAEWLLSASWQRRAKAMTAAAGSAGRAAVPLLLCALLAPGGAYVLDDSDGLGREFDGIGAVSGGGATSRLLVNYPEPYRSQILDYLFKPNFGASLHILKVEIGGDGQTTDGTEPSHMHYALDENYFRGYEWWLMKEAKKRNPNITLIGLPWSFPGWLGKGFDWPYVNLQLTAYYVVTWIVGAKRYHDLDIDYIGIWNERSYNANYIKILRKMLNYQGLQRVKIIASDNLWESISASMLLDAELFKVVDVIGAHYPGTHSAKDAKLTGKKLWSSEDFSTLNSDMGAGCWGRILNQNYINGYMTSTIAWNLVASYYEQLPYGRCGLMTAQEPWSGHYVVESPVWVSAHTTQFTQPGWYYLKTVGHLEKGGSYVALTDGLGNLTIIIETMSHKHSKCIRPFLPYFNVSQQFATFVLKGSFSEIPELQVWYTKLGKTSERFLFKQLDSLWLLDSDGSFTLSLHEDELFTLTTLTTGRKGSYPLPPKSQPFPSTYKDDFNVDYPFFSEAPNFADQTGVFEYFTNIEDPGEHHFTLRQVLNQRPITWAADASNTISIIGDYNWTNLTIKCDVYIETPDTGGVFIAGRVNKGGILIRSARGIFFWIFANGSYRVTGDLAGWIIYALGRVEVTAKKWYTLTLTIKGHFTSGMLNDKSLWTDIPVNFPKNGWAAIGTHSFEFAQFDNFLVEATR

In this test the target is Galactocerebrosidase (Homo sapiens) (UniProt P54803). As to the kind of experiment: A Novel Cell-Based Assay to Identify Small Molecules for B -Galactocerebrosidase. Note: 0% is about no effect; nearly all actives have a fitted effect of over 65% in size. The conditions noted are these: 145M-Twi-hGALC-G270D cells (Twitcher mouse brain line with human GALC G270D), HMU-beta-Gal fluorescence, 48 h; series mostly up to 57.5 µM; activation: at the top concentration. The procedure, abridged:
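Brain-derived Twitcher mouse 145M-Twi cells stably expressing human GALC-G270D or wild-type GALC, treated live, then residual GALC activity read by fluorescence of HMU-b-Gal substrate (0.1 mM final) in citrate-phosphate buffer pH 5.2 with sodium taurocholate. Signal increase indicates enhancement.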
`COC(=O)c1cnn(-c2ccc(C(=O)Nc3cc(OC)c(OC)c(OC)c3)cc2)c1N`: the “activation” value was inactive: -11.2%. With `CCOc1ccccc1CNc1ncnc2onc(-c3ccc(F)cc3)c12` the figure was inactive: -4.73%. The figure for `CCN1CCC(N(Cc2ccc(F)cc2)C(=O)Nc2cc(C)ccc2C)CC1` is inactive: 0.96%; for `CCCNC(=O)CN1C(=O)COc2ccc(S(=O)(=O)N3CCCC3)cc21` it is inactive: -8.15%. The figure for `CCOc1c(CC2C(=O)Nc3ccc(Br)cc32)cccc1OC` (stereo not drawn) is inactive: -7.89%; for `Cc1nc(N2CCOCC2)c2c(C(=O)N3CCN(c4cc(Cl)ccc4C)CC3)c(C)oc2n1` it is inactive: -16%; for `O=C(CN1C(=O)C2CCCCN2c2ccc(C(=O)N3CCCC3)cc21)NCc1ccc(F)cc1` (stereo not drawn) it is inactive: -10.1%. `COC(=O)c1ccc(C2CC(=O)Nc3c2c(C)nn3-c2nc(C)cc(C)n2)cc1` (stereo not drawn): the “activation” value is inactive: -13.7%. With `O=C(Nc1ccc(S(=O)(=O)Nc2ncccn2)cc1)c1cccc(Cl)c1` the figure was inactive: -11%; with `CCOc1ccc(N2C(=O)c3[nH]nc(-c4ccccc4)c3C2c2ccc(O)c(OC)c2)cc1` (stereo not drawn), inactive: -14.9%. The figure for `COc1ccc(-n2cc(C(=O)NCCc3ccc(C)cc3)c3ccccc3c2=O)cc1` is inactive: 5.3%; for `CC1CCCCN1C(=O)CSc1nc2ccccc2nc1Cc1ccccc1` (stereo not drawn) it is inactive: -9.24%. With `COc1cc(NC(=O)Cn2c(=O)n(Cc3ccccc3)c(=O)c3oc4ccccc4c32)cc(OC)c1` the figure was inactive: -8.23%. With `CCOC(=O)c1c(S(=O)(=O)N2CCC(C(=O)Nc3ccc(C)cn3)CC2)c(C)n(C)c1C`, the “activation” value is inactive: -14.5%. Consider `CCn1c(SC)nc2c([nH]c3ccccc32)c1=O`, for which the “activation” value is inactive: -9.56%. `Cc1cc(C)cc(NC(=O)CC(C)n2nc(C)cc2C)c1` (stereo not drawn): the “activation” value was inactive: -15.8%. For `CCN(CC)c1ccc(NC(=O)CN2CCN(S(=O)(=O)c3ccc(C(C)C)cc3)CC2)cc1`, the “activation” value was inactive: -15.9%. With `O=C(Cn1ccc2cc(S(=O)(=O)N3CCCC3)ccc21)NCc1ccc(Cl)cc1` the figure was inactive: 7.16%.

For the compound `COc1ccc(CNC(=O)c2ccc3c(c2)N=C(C)c2c(C)ccc(C)c2S3)cc1`, the “activation” value is inactive: -8.14%. The figure for `COc1ccc(-c2noc(CC(=O)N(C)c3ccccc3F)n2)cc1` is inactive: -17%; for `O=C(Nc1ccc(F)cc1)C1CCN(c2nc3ccccc3nc2C(F)(F)F)CC1` it is inactive: -15.5%. With `COc1ccc(NC(=O)C2=C(C)Nc3nc(SCc4ccc(C)cc4C)nn3C2c2cccc(OC)c2OC)cc1` (stereo not drawn) the figure was inactive: -6.61%; with `COc1ccccc1NC(=O)c1sc2nc(-c3cc4cc(Cl)ccc4oc3=O)[nH]c(=O)c2c1C`, inactive: -8.72%; with `Cc1ccc(CNC(=O)c2oc3ccc(S(=O)(=O)N4CCCC(C)C4)cc3c2C)cc1` (stereo not drawn), inactive: -2.62%. With `Cc1oc2ncnc(N3CCCCC3)c2c1C(=O)NCC1CCN(Cc2ccccc2F)CC1` the figure was inactive: -15.3%; with `Cc1[nH]c(=O)[nH]c(=O)c1S(=O)(=O)Nc1cccc(Cl)c1C`, inactive: -9.36%; with `CCOc1ccc(CNC(=O)Cn2nc(C)c3nn(-c4ccc(Cl)cc4)c(C)c3c2=O)cc1`, inactive: -15.3%.

For the compound `COc1cc(-c2ccno2)ccc1S(=O)(=O)N1CCN(c2cccc(Cl)c2)CC1`, the “activation” value is inactive: -4.24%. The figure for `COc1ccc(CCNS(=O)(=O)c2ccc3c(c2)c(=O)n(C)c(=O)n3C)cc1OC` is inactive: -17.3%; for `O=C(NCCN1CCOCC1)c1ccc(Cl)cc1` it is inactive: -17.5%. With `COc1ccc(OC)c(NC(=O)Cn2nc3c(cc2=O)CCCC3)c1` the figure was inactive: 9.57%. The figure for `NS(=O)(=O)c1ccc(NC(=O)c2cc(-c3cccs3)nc3ccccc23)cc1` is inactive: -12%; for `Cc1ccc(NC(=O)c2nc(S(C)(=O)=O)ncc2N(Cc2cccc(F)c2)Cc2ccco2)cc1C` it is inactive: -14.7%; for `Cc1ccc(NC(=O)CCCc2nnc3n(C)c(=O)c4sccc4n23)cc1C` it is inactive: -6.89%. For `Cc1cccc(NC(c2cccc(F)c2)c2ccc3ccc(C)nc3c2O)n1` (stereo not drawn), the “activation” value was inactive: -5.14%. The figure for `Cc1ccc(CCNC(=O)c2cc3c(s2)-c2ccccc2OC3)cc1` is inactive: -11.2%; for `c1ccc(-c2cc(-c3ccccc3)c3c(n2)-c2ccccc2OC3)cc1` it is inactive: -4.4%. Regarding `CC1CCN(S(=O)(=O)c2ccc3c(c2)N(CC(=O)NCc2ccccc2Cl)C(=O)CS3)CC1`, the “activation” value was inactive: -3.35%. Consider `Cc1nc2ccc(S(=O)(=O)NC(C(=O)NCc3ccccc3Cl)C(C)C)cc2s1` (stereo not drawn), for which the “activation” value was inactive: -12.8%. With `NC(=O)CSc1nc2ccc(NC(=O)COc3ccccc3)cc2s1` the figure was inactive: -20.1%; with `CCCn1c(=N)c(C(=O)NC2CCCC2)cc2c(=O)n3cc(C)ccc3nc21`, inactive: -3.84%. With `CC1CCC(NC(=O)c2ccc3c(c2)N(Cc2ccccc2F)C(=O)c2ccccc2S3)CC1` (stereo not drawn) the figure was inactive: -16.2%. Consider `NCCNCCNCCN`, for which the “activation” value was inactive: -14.6%. The figure for `Cc1cc(C)cc(NC(=O)Cn2nnc(C(=O)NCCc3ccccc3)c2N)c1` is inactive: -20.9%. With `COc1ccc(OC)c(CNS(=O)(=O)c2c(C(=O)N3CCC(C)CC3)c(C)n(C)c2C)c1` the figure was inactive: -1.11%; with `CCCCNc1ccc(-c2nc(-c3ccccc3)no2)cc1[N+](=O)[O-]`, inactive: -8.48%; with `Cc1ccc2c(CC(=O)N3CCN(c4cccc(Cl)c4)CC3)coc2c1`, inactive: -21.2%. The figure for `O=C(Nc1cccc(C(F)(F)F)c1)C1CCCN(S(=O)(=O)c2cccc3nsnc23)C1` (stereo not drawn) is inactive: -30%; for `O=S(=O)(Nc1ccc(F)c(C(F)(F)F)c1)c1ccc(N2CCCCS2(=O)=O)cc1` it is inactive: -16.8%. Consider `CSc1ncc(Cl)c(C(=O)NCc2ccc(C)cc2)n1`, for which the “activation” value was inactive: -12.8%. The figure for `COc1cc(Nc2nc(SCc3ccccc3F)nc3ccccc23)cc(OC)c1` is inactive: -6.95%; for `Cc1ccc(CCNC(=O)c2ccc(CS(=O)(=O)c3ccc(Br)cc3)o2)cc1` it is inactive: -10.4%; for `CCOc1ccccc1NC(=O)CSc1c(C)cnc2c1c(=O)n(C)c(=O)n2C` it is inactive: -1.33%. The figure for `CCOc1ccc(C(=O)NCCc2sc(-c3ccc(C)cc3)nc2C)cc1` is inactive: -16.9%; for `CC(C)CCN1C(=O)N(c2ccccc2)C(=O)C1CC(=O)Nc1ccc(Cl)cc1` (stereo not drawn) it is inactive: -7.47%. The figure for `Cc1ccc(Sc2ccc(N3CCCC(C(=O)Nc4ccc(Cl)cc4)C3)nn2)cc1` (stereo not drawn) is inactive: 2.22%; for `CC(C)NC(=O)CSc1nc2ccccc2nc1N1CCCCC1` it is inactive: -6.58%. Take `COc1ccccc1N1CCN(CCCNC(=O)c2cnn(-c3ccccc3Cl)c2C2CCN(C(=O)OC(C)(C)C)CC2)CC1`: the “activation” value is inactive: -9.35%.

As for `CC1=C(C(=O)Nc2cccc(C)c2C)C2(CCCCC2)OC1=O`, the “activation” value is inactive: -9.01%.

In the case of `CC1=C(C(=O)Nc2c(C)cc(C)cc2C)C2(CCN(C(C)C)CC2)OC1=O`, the “activation” value was inactive: -8.55%. The figure for `CCOCCCNC(=O)C(c1ccc(OC)cc1)N(Cc1cccs1)C(=O)c1ccccc1O` (stereo not drawn) is inactive: -17.2%. With `COc1ccc(CCNC(=O)c2cnc3sc(N4CCCCCC4)nn3c2=O)cc1OC` the figure was inactive: 5.85%; with `COc1ccc(-c2cc3c(=O)n(CC(=O)Nc4ccccc4C(F)(F)F)ccn3n2)cc1OC`, inactive: -21.8%; with `COc1ccc(C(c2c(C)n(C)n(-c3ccccc3)c2=O)c2c(C)n(C)n(-c3ccccc3)c2=O)cc1O`, inactive: -14.4%. The figure for `CCOc1cccc2sc(N(Cc3cccnc3)C(=O)c3ccco3)nc12` is inactive: -16.3%; for `COc1cc(OC)c(NC(=O)Nc2nnc(N(C)C3CCCCC3)s2)cc1Cl` it is inactive: -7.23%; for `Cc1ccc(N2CC(NC(=O)Cc3cccs3)CC2=O)cc1` (stereo not drawn) it is inactive: -10.4%. As for `CC1(C(=O)Nc2cccc(C(F)(F)F)c2)Cc2ccccc2C(=O)O1` (stereo not drawn), the “activation” value was inactive: -7.76%. The figure for `Cc1c(C(=O)Nc2ccc(Br)cc2F)oc2ccc(S(=O)(=O)N3CCCCC3)cc12` is inactive: -20.7%. On to `CC1CCN(CC(=O)N2CCCc3c2c(=O)oc2ccc(OCc4ccccc4)cc32)CC1`, for which the “activation” value was inactive: -33.4%. In the case of `CC(=O)c1ccc(NC(=O)CN(C)S(=O)(=O)c2cc3c(cc2C)NC(=O)CO3)cc1`, the “activation” value was inactive: -6.12%. With `COc1ccccc1-c1c(C(F)(F)F)oc2c(CN3CCCCC3C)c(O)ccc2c1=O` (stereo not drawn) the figure was inactive: 6.7%; with `Cc1ccccc1CN1C(=O)c2ccccc2Sc2ccc(C(=O)N3CCOCC3)cc21`, inactive: -18.6%. The figure for `Cc1cc(F)ccc1NC(=O)CCS(=O)(=O)c1cccc2nsnc12` is inactive: 0.481%; for `O=C(Nc1ccc2oc(-c3cccc4c(Br)cccc34)nc2c1)c1ccc(Br)cc1` it is inactive: -13.1%. With `CC(=O)c1[nH]c(C)c(C(=O)NCc2ccc(Cl)cc2)c1C` the figure was inactive: -38.1%; with `Cc1cccc(-c2nc(-c3ccc4c(c3)[nH]c(=O)n4C)no2)c1`, inactive: -6.75%. Regarding `CCN1C(=O)c2ccccc2S(=O)c2ccc(C(=O)N3CCN(c4ccc(F)cc4)CC3)cc21` (stereo not drawn), the “activation” value is inactive: -3.35%. The figure for `Cc1ccc(S(=O)(=O)N2CCC(C(=O)Nc3cc(C)ccc3C)CC2)cc1` is inactive: -12.4%; for `CCCN(CCC)CCCNC(=O)c1cc2c(-c3ccc(Cl)cc3)nn(C)c2s1` it is inactive: -13.7%. With `Cc1cccc(NC(=O)CSc2nc3c(oc4ccccc43)c(=O)n2-c2ccccc2)c1C` the figure was inactive: -9.04%; with `CCOC(=O)c1[nH]c(C)c(CCC(=O)NCc2cccc(Cl)c2)c1C`, inactive: -5.17%. As to `O=C(CSc1c2c(nc3ccccc13)CCC2)Nc1ccc(F)cc1F`, the “activation” value was inactive: 2.78%. As for `CCN1CCCC(OC(=O)C(c2ccccc2)c2ccccc2)C1` (stereo not drawn), the “activation” value was inactive: -21%.

In the case of `COc1cc(-c2cc3n(C)c(C)c(CCC(=O)Nc4ccc(F)cc4)c(=O)n3n2)cc(OC)c1OC`, the “activation” value was inactive: -11.9%. The figure for `COc1ccc(Cn2c(=O)c3oc4ccccc4c3n(Cc3ccccc3)c2=O)cc1` is inactive: -11.2%; for `COC(=O)c1ccc([C@@H]2Nc3c(cccc3C(F)(F)F)[C@@H]3C=CC[C@@H]32)cc1` it is inactive: -18.5%. Turning to `Cc1ccc(NC(=O)CSc2nc3c(c(=O)[nH]2)CN(Cc2ccccc2)CC3)cc1Cl`, the “activation” value is inactive: -0.835%.

Consider `CC(=O)N1c2ccccc2C(=O)C1N1CCN(c2cccc(C)c2C)CC1` (stereo not drawn), for which the “activation” value is inactive: -11.6%.

Consider `Nc1nonc1-c1nc2ccccc2n1Cc1ccc(Br)cc1`, for which the “activation” value was inactive: -13.9%. With `CC1(C)CC(=O)c2cc(C(=O)Nc3ccc(Cl)cc3)c(=O)[nH]c2C1` the figure was inactive: -13.2%. With `Cc1ccc(NC(=O)C2=CC(c3cccs3)=NS(=O)(=O)N2C)cc1` the figure was inactive: -12.6%. With `CC(CNC(=O)c1sc2ncccc2c1-n1cccc1)c1ccccc1` (stereo not drawn) the figure was inactive: -17.2%.

In the case of `CC(C)(Oc1ccc(Cl)cc1)C(=O)Nc1cccc(-c2cn3cccnc3n2)c1`, the “activation” value was inactive: -11.7%.

As to `O=C(CC(c1cccs1)N1Cc2ccccc2C1=O)Nc1ccccc1F` (stereo not drawn), the “activation” value was inactive: -16%. With `Cc1ccc(-c2nn(CCC(=O)Nc3ccc(Cl)c(Cl)c3)c(=O)c3ccccc23)cc1` the figure was inactive: 2.11%; with `CCOc1cc(C2C(C(N)=O)=C(C)Nc3ncnn32)cc(Br)c1O` (stereo not drawn), inactive: -1.67%; with `COc1ccc(-c2nc(S(=O)(=O)c3ccc(Cl)cc3)c(N3CCCCCC3)o2)cc1`, inactive: -14%.
